From PubChem BioAssay AID1030 (National Center for Advancing Translational Sciences (NCATS), 2008)
Screen size: about 220,000 compounds; about 16,000 (7.3%) were called active. Inconclusive results, whose numbers are uncertain, are shown with a selection of clear calls. Calls follow the shape of the dose curve; as a rule, active = well fitted inhibition curve with a large enough effect (not every such curve was filed as active); inconclusive = small, poorly fitted or top-dose-only effect, or another doubt; inactive = no such curve, though single readings can be large or run the other way. No potency is given beside an inconclusive call; the fits are too rough.

Biological target: Aldehyde dehydrogenase 1A1 (Homo sapiens) (UniProt P00352)
Test: qHTS Assay for Inhibitors of Aldehyde Dehydrogenase 1 (ALDH1A1)
Conditions: Purified ALDH1A1, NADH fluorescence, propionaldehyde substrate; series mostly up to 75.3 µM
Potency is read from the fitted curve at half-maximal effect; tags tell the direction and shape of the fitted curve.

UniProt P00352, sequence (P00352 whole entry, looked up): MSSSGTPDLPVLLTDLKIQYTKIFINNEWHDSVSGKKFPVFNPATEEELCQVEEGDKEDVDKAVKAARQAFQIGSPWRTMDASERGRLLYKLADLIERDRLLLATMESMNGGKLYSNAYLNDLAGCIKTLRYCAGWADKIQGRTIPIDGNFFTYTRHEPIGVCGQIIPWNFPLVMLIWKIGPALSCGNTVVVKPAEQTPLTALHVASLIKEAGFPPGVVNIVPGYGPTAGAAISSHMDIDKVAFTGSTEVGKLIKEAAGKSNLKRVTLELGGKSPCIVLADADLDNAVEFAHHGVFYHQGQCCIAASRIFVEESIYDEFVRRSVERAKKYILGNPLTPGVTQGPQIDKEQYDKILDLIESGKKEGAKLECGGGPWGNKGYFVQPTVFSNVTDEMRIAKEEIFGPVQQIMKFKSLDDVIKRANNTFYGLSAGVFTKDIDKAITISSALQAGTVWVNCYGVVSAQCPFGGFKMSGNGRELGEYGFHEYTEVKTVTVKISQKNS

| Structure (SMILES) | Potency |
| --- | --- |
| CC(=O)NC(CCS(C)(=O)=O)C(=O)Nc1nccs1 (stereo not given) | inconclusive [inhibitor, single point] |
| Cc1ccc(-n2c(SCC(=O)Nc3ccc4c5c(cccc35)CC4)nc(O)cc2=O)cc1 | inconclusive [inhibitor, single point] |
| O=C(NCc1cccs1)c1nn2cccnc2c1Cl | inactive |
| Cc1ccc(Cl)c(OC(=O)c2ccc(N3CCOCC3)c([N+](=O)[O-])c2)c1 | inactive |
| Cc1cccc2cc(CN(Cc3ccc(F)cc3)C(=O)N3CCOCC3)c3nnnn3c12 | inactive |
| O=C(O)/C=C\C(=O)Nc1ccc(OCc2ccccc2)cc1 | active: 25.1 µM |
| O=C1NC(=Nc2ccccc2)/C(=C/c2ccco2)S1 | inconclusive [inhibitor, single point] |
| CC1CCCN(C(=O)Cc2cn(Cc3cccc(Cl)c3)c3ccccc23)C1 (stereo not given) | inconclusive [inhibitor, single point] |
| Cc1ccccc1OCc1nc(-c2cccnc2)no1 | inactive |
| COc1ccc(C(=O)NCc2nnc(SC)n2Cc2ccccc2)cc1 | inconclusive [inhibitor, partial curve] |
| CCCOc1ccc(N2C(=O)CC(NNC(=O)c3ccc(COc4ccccc4)o3)C2=O)cc1 (stereo not given) | inconclusive [inhibitor, single point] |
| CCCn1c(CNc2ccccc2O)nc2ccccc21 | active: 12.6 µM |
| O=C(CN1CCOc2ccccc21)NCc1ccc(F)cc1 | inactive |
| COc1ccc(-c2noc(CN(C)C3CCOCC3)n2)cc1 | inactive |
| C=CCn1c(-c2ccc(OC)cc2)csc1=Nc1c(C)n(C)n(-c2ccccc2)c1=O | inactive |
| COc1ccc(-c2c(C(F)(F)F)oc3c(CN4CCN(C)CC4)c(O)ccc3c2=O)cc1 | inconclusive [inhibitor, single point] |
| COC(=O)c1ccc(C(=O)OC)c(NC(=O)CN2CCC(C)CC2)c1 | inconclusive [inhibitor, partial curve] |
| O=C(Nc1ccccc1N1CCCC1)c1ccco1 | inconclusive [inhibitor, single point] |
| Cc1cc(C)cc(C(=O)NCC(=O)OCC(=O)NCC(F)(F)F)c1 | inactive |
| CCCCn1c(C(C)NC(=O)CC)nc2ccccc21 (stereo not given) | inactive |
| N#C/C(=C\c1ccc(O)c(O)c1)C(N)=O | inconclusive [inhibitor, single point] |
| CC1=NN(c2ccc(S(=O)(=O)O)cc2Cl)C(=O)C1 | active: 11.2 µM |
| CCOC(=O)CNC(=O)CNC(=O)Cn1ccc2ccccc2c1=O | inconclusive [inhibitor, single point] |
| CCn1c(=O)c2c3c(sc2n(C)c1=O)CCC3 | inconclusive [inhibitor, single point] |
| COc1ccc(/C=C/C(=O)N(C)C2CCCCC2)cc1Br | inconclusive [inhibitor, partial curve] |

| Structure (SMILES) | Potency |
| --- | --- |
| O=C(NCCc1ccc(Cl)cc1)C1CCC(=O)N1C1CCCC1 (stereo not given) | inconclusive [inhibitor, partial curve] |
| O=C(COc1cccc2ccccc12)NNC(=O)[C@@H]1CCCC[C@@H]1C(=O)O | inconclusive [inhibitor, single point] |
| CC1=NN(c2ccccc2)C(=O)/C1=C\C=C1\N(C)c2ccccc2C1(C)C | inconclusive [inhibitor, single point] |
| CCCOc1ccc(C2NC(=O)NC2=O)cc1 (stereo not given) | inconclusive [inhibitor, single point] |
| CCn1nc(NC(=O)c2ccncc2)c2cc3cccc(C)c3nc21 | inconclusive [inhibitor, partial curve] |
| O=C(NC(=Nc1nc2ccccc2o1)NC(=O)c1ccccc1)c1ccccc1 | inactive |
| CO/N=C/c1ccc(Sc2ccccc2N)c([N+](=O)[O-])c1 | inactive |
| CCCCC1OC23CCCCC2C(C#N)(C#N)C1(C#N)C(=N)O3 (stereo not given) | active: 1.78 µM |
| COc1ccc(OC)c(-c2cc(C(=O)NCc3ccc(Cl)cc3)no2)c1 | inactive |
| COC(=O)c1cc2oc3ccccc3c2n1Cc1ccccn1 | inconclusive [inhibitor, partial curve] |
| Cc1ccc(NC(=S)N2CCN(C(=O)c3ccccc3)CC2)c(C)c1 | inconclusive [inhibitor, partial curve] |
| Brc1ccccc1OCCCN1CCCCCC1 | inconclusive [inhibitor, single point] |
| COc1ccc(CCNC(=O)c2ccc(-c3ccc([N+](=O)[O-])cc3Cl)o2)cc1 | inconclusive [inhibitor, single point] |
| Cc1ccc2cc3c(nc2c1)N(Cc1ccco1)CC3 | inconclusive [inhibitor, single point] |
| COc1cc2c(cc1OC)-c1cc(OCc3ccccc3Cl)nc(=O)n1CC2 | inconclusive [inhibitor, partial curve] |
| O=C(/C=C/Nc1ccccc1F)c1ccc(Br)cc1 | inactive |
| COCC(=O)Nc1nnc(-c2ccc(C(C)(C)C)cc2)s1 | inactive |
| CC1=C(C)CC(C(=O)Nc2nc(-c3ccc(F)cc3)c(C)s2)C(C(=O)O)C1 (stereo not given) | inconclusive [inhibitor, single point] |
| Cc1ccc(C)c(Cn2nnc3c(=O)[nH]c(C4CCCN(C(=O)C5CCCCC5)C4)nc32)c1 (stereo not given) | active: 12.6 µM |
| CSC1=NC(NCCCO)c2c(sc3c2CC(C)(C)OC3)N1 (stereo not given) | inconclusive [inhibitor, single point] |
| O=C(O)c1cc(-c2ccc(O)cc2)on1 | inconclusive [inhibitor, full curve] |
| O=C(NCC1COc2ccccc2O1)C1CCC(CNc2c(N3CCCCC3)c(=O)c2=O)CC1 (stereo not given) | inactive |
| S=C(Nc1ccccc1)N1CCN(C(=S)c2ccccc2)CC1 | active: 12.6 µM |
| Cc1ccc(NCc2ccncc2)c(Br)c1 | inactive |
| Cc1c(Cc2ccc3c(c2)OCO3)sc(NC(=O)c2cccc3ccccc23)c1C(N)=O | active: 14.1 µM |
